Structures are written as SMILES. The whole screen tested about 52,000 compounds, of which about 1,700 (3.3%) were called active. No stated cut-off is given here; in the data, active means survival mostly below about 52% (no sharp cut-off); inactive means mostly above about 56%. Some of the results follow.

The experiment concerns Wild type. The experiment can be described thus: growth inhibition of S. aureus wild type versus tarO mutant, primary screen, teichoic acid synthesis inhibitors, RN4220, OD600 (AID 463173). Particulars: S. aureus RN4220 wild type/DeltatarO growth, OD600, 18 h, stronger effect = lower value, screened at 18.75 µg/mL (by protocol).
In the case of `COCC(=O)Nc1c(C(=O)Nc2ccc(C)cc2)oc2ccccc12`, the survival was inactive: 86%.

`Cc1ccc(NC(c2nnc(-c3ccccc3)o2)c2ccccc2F)c(Cl)c1` (centres undefined): the survival was inactive: 91%.

Turning to `Cc1ccc2oc(-c3ccc(C)c(NC(=O)c4ccc(-c5ccccc5[N+](=O)[O-])o4)c3)nc2c1`, the survival was inactive: 71%.

As for `Cc1nc2ccccc2c(=O)n1CC(C)C`, the survival was inactive: 106%.

On to `CCOc1ccc(S(=O)(=O)N(CC(=O)Nc2ccc3c(c2)OCO3)c2ccc(C)cc2)cc1`, for which the survival is inactive: 61%.

Consider `COc1cc(CN(C(=O)c2ccc(Cl)cc2)C2CCS(=O)(=O)C2)cc(OC)c1OC` (centres undefined), for which the survival was inactive: 96%.

`Cc1ccc(CCNC(=O)CCn2nc(-c3ccc(C)cc3)ccc2=O)cc1`: the survival is inactive: 128%.

With `COC(=O)c1ccc2c(=O)n(CCCCCC(=O)N3CCN(c4ccc(Cl)cc4)CC3)c(=O)[nH]c2c1`, the survival is inactive: 136%.

As to `COc1cccc(C(=O)n2nc(-c3cccnc3)nc2NCc2ccc(F)cc2)c1`, the survival is inactive: 75%.

As to `CCN(CC)CCSc1nnc2c3cc(F)ccc3n(CC)c2n1`, the survival was inactive: 144%.

`CCCSc1nnc2c(n1)OC(c1cccs1)Nc1ccc(Br)cc1-2` (centres undefined): the survival is inactive: 57%.

For `COC(=O)c1ccc(NC(=O)CN(Cc2ccccc2)S(=O)(=O)c2ccc(Cl)cc2)cc1`, the survival was inactive: 56%.

For the molecule `COc1ccccc1CNC(=O)Cn1c(=O)nc(-c2ccccc2)c2ccccc21`, the survival was inactive: 67%.

On to `O=C(NCCc1ccccc1)c1ccc(CS(=O)(=O)c2ccc(Cl)cc2)o1`, for which the survival was inactive: 78%.

Regarding `Oc1c(C(c2ccccc2F)N2CCCC2)sc2nc(-c3ccco3)nn12` (centres undefined), the survival is inactive: 88%.

`Cc1c(Cl)cccc1NC(=O)Nc1ccc2snnc2c1`: the survival is active: 24%.

In the case of `CCn1nc(C)c(NC(=O)CCSc2nc(-c3ccco3)cc(C(F)(F)F)n2)c1C`, the survival is inactive: 105%.

In the case of `CCc1ccc(N(CC)C(=O)Cn2cnc3sc(C)c(S(=O)(=O)N4CCN(c5ncccn5)CC4)c3c2=O)cc1`, the survival is inactive: 83%.

As to `CCCOc1ccccc1C1C(C(=O)Nc2ccccc2)=C(C)Nc2nnnn21` (centres undefined), the survival is inactive: 134%.

As for `CCCC1=Nc2cc(C(=O)NCCOC)ccc2Sc2ccccc21`, the survival is inactive: 123%.

Regarding `CCC(=O)N1c2ccc(S(=O)(=O)CCC(=O)NCc3cccc(OC)c3)cc2CC1C` (centres undefined), the survival is inactive: 82%.

With `CC(=O)Nc1ccc(NC(=O)c2cc(-c3ccc4c(c3)OCCO4)on2)cc1`, the survival was inactive: 109%.

Turning to `Cc1cccc(S(=O)(=O)c2cn(C)c3cc(N4CCC(C)CC4)c(F)cc3c2=O)c1`, the survival is inactive: 81%.

As for `Cc1[nH]c(=O)[nH]c(=O)c1CSCC(=O)O`, the survival is inactive: 108%.

Take `COc1ccc(-c2noc(CSc3nnc(C)n3-c3ccc(C)c(C)c3)n2)c(OC)c1`: the survival was inactive: 81%.

As for `COc1ccc(-c2nc(SCC(=O)NCCc3ccccc3)n[nH]2)cc1`, the survival is inactive: 78%.

For `O=C(NCc1ccccc1Cl)c1nnc(Cc2ccc(Cl)cc2)o1`, the survival was inactive: 85%.

In the case of `Cc1cccc(CSc2ccc(-c3cccs3)nn2)c1`, the survival was inactive: 76%.

With `CN(C)c1ccc(-c2nc3ccccn3c2NC2CCCC2)cc1`, the survival was inactive: 105%.

For `CCOc1ccc(NC(=O)C(C)n2c(=O)cc(C)c3c(C)nn(-c4ccccc4)c32)cc1` (centres undefined), the survival was inactive: 68%.

For `CCc1ccc(OCC(=O)Nc2ccc3c(c2)c2ccccc2n3CC)c(Br)c1`, the survival was active: -6%.

As to `N#C/C(=C\c1cc(Br)c(O)c(Br)c1)c1nc2ccccc2c(=O)[nH]1`, the survival was inactive: 94%.

On to `Cc1ccc2onc(CC(=O)N3CCN(c4ccccc4)CC3)c2c1`, for which the survival is inactive: 81%.

With `CCc1ccc(NC(=O)CSc2ncc(S(=O)(=O)c3cc(C)ccc3C)c(=O)[nH]2)cc1`, the survival was inactive: 83%.

As to `CC1CCN(c2nc3ccc(C(=O)NCCc4ccc(S(N)(=O)=O)cc4)cc3s2)CC1`, the survival was inactive: 80%.

Regarding `O=C(Cn1c(=O)oc2cc(S(=O)(=O)N3CCCCC3)ccc21)NCc1ccc(F)cc1`, the survival was inactive: 133%.

Turning to `COc1ccc(CC(=O)NC2CC(=O)N(c3ccc(C)c(C)c3)C2)cc1OC` (centres undefined), the survival is inactive: 45%.

As to `Cc1ccc(CNC(=O)CN2C(=O)C3(SCC(=O)N3c3ccc(F)c(F)c3)c3ccccc32)cc1` (centres undefined), the survival is inactive: 70%.

As to `COc1ccc(-c2nc(Cn3c(SCc4ccccc4F)nc4cccnc43)c(C)o2)cc1`, the survival was inactive: 68%.

Turning to `Cc1cccc2sc(N(Cc3cccnc3)C(=O)C3COc4ccccc4O3)nc12` (centres undefined), the survival was inactive: 76%.

Turning to `COc1ccc(OC)c(NC(=O)C2C3C=CC(C3)C2C(=O)NCc2cccnc2)c1` (centres undefined), the survival is inactive: 117%.

In the case of `CC1=C(C#N)c2nc(N)c(C#N)c(C)c2/C1=C\c1cccnc1`, the survival was inactive: 83%.

On to `O=C(CN1C(=O)CCc2cc(S(=O)(=O)N3CCCCC3)ccc21)NCc1ccc(Cl)cc1`, for which the survival is inactive: 73%.

As for `COC(=O)c1c(NC(=O)c2ccc(S(=O)(=O)N(C)C3CCCCC3)cc2)sc2c1CCN(C)C2`, the survival was inactive: 73%.

In the case of `CCOC(=O)C(Cc1ccccc1)NC(=O)CCc1c(C)nc2c(c(C)nn2-c2ccc(C)c(C)c2)c1C` (centres undefined), the survival was inactive: 94%.

For `COC(=O)c1ccccc1NC(=O)C1CCCN(c2nnc(C)c3c(C)n(-c4ccccc4)nc23)C1` (centres undefined), the survival was inactive: 85%.

For `COc1ccc(OCC(=O)NCC(c2ccc(OC)cc2)N2CCOCC2)cc1` (centres undefined), the survival was inactive: 108%.

On to `Cc1ccc(C)c(N2CCN(C(=O)CS(=O)(=O)c3cccc4nsnc34)CC2)c1`, for which the survival was inactive: 120%.

For the molecule `Cc1cccc(N2CCN(C(=O)CN3C(=O)COc4ccc(S(=O)(=O)N5CCCC5)cc43)CC2C)c1` (centres undefined), the survival was inactive: 95%.

`Cc1cc(NC(=O)C(C)(C)C)cc(-c2nc3ncccc3o2)c1O`: the survival was inactive: 79%.

With `Cc1cc(NC(=O)c2cnc3c(-c4ccccc4)c(C)nn3c2C)ccc1Br`, the survival was inactive: 73%.

For `O=C(Cn1c(-c2cccs2)cc2cc(F)ccc21)NCCCN1CCN(c2ccc(F)cc2)CC1`, the survival was inactive: 68%.

Regarding `Cc1ccc(/C=C/c2onc(C)c2S(=O)(=O)N2CCC(C(=O)NCc3ccc(OC(C)C)cc3)CC2)cc1`, the survival was inactive: 97%.

As for `CN(C)c1ccc2c(c1)S(=O)(=O)c1cc(N(C)C)ccc1C2=O`, the survival was inactive: 110%.

Take `CC1Cc2ccccc2N1C(=O)c1cc2sccc2n1Cc1ccc(F)cc1` (centres undefined): the survival is inactive: 119%.

As for `CCn1c(SCC(=O)c2ccccc2)nnc1-c1cccc(Cl)c1`, the survival was inactive: 33%.

`CCc1c(CN2CCN(c3ccccc3F)CC2)csc1C`: the survival is inactive: 52%.

Consider `Cc1ccc(S(=O)(=O)NCCSc2nnc3nc(C)cc(C)n23)cc1`, for which the survival was inactive: 99%.

For the molecule `Cc1ccc(CNC(=O)c2ccccc2NC(=O)c2nsc3ccccc23)cc1`, the survival is inactive: 75%.

Turning to `COc1ccc(-c2c(C)c3ccc(O)c(CN4CCCC4)c3oc2=O)cc1`, the survival was inactive: 81%.

Take `COc1cccc(CNCCSc2nnnn2-c2ccccc2)c1OC`: the survival was inactive: 85%.

As for `COCCCNC(=O)NC(CCC(C)C)c1c(-n2cccc2)sc2c1CCN(C)C2` (centres undefined), the survival was inactive: 75%.

In the case of `Cc1c(Cl)cccc1NC(=O)CCCn1nc(C)c2sc3ccccc3c2c1=O`, the survival is inactive: 82%.

For `Cc1nnc(C)n1-c1ccc(C(=O)Nc2cccc(Br)c2)cc1`, the survival was inactive: 99%.

As to `Cc1cccc(Cn2cc3c(=O)n(CC(=O)Nc4c(C)cccc4C)nc-3c3cc(F)ccc32)c1`, the survival is inactive: 71%.

With `CCC1CCCCN1S(=O)(=O)c1ccc(NC(=O)c2cc(=O)c3c(C)cc(C)cc3o2)cc1` (centres undefined), the survival is inactive: 78%.

With `COc1cccc(N2CCN(c3c4c(nc5nncn35)CCC4)CC2)c1`, the survival was inactive: 81%.

`COC(=O)c1cc2oc3ccccc3c2n1Cc1nc(-c2ccccc2Cl)oc1C`: the survival is inactive: 87%.

For `CC(C)Sc1nc2sc3c(c2c(=O)n1Cc1ccccc1)CCCC3`, the survival is active: 5%.

In the case of `CCOc1ccccc1N1CCN(C(=O)C2CCN(Cc3ccc(OC)cc3)CC2)CC1`, the survival is inactive: 106%.

On to `CC(C)NC(=O)CSc1nnc(Cc2ccccc2)n1C`, for which the survival was inactive: 101%.

For `CC1(C)CC(=O)c2cc(-c3nc(-c4ccccc4)cs3)c(=O)[nH]c2C1`, the survival was inactive: 67%.

On to `Cc1ccc(NC(=O)C2CCN(S(=O)(=O)c3c(C)noc3C)CC2)cc1`, for which the survival is inactive: 95%.

For the molecule `O=C(NCCN1CCN(c2ccccc2)CC1)Nc1cccc(Br)c1`, the survival was inactive: 74%.

Consider `O=C(OCc1ccccc1)N1CCOCCN(C(=O)OCc2ccccc2)CCOCC1`, for which the survival is inactive: 102%.

Consider `CCOc1ccc(NC(=O)CSc2nc3ccsc3c(=O)n2C(C)CC)cc1` (centres undefined), for which the survival is inactive: 78%.

For the molecule `COc1ccc(Nc2nc(-c3cccc(Cl)c3)c3c(n2)-c2ccccc2OC3)cc1`, the survival was inactive: 86%.

In the case of `CCOc1ccccc1CNC(=O)Cc1ccc(NC(=O)N2CCCCc3ccccc32)cc1`, the survival was inactive: 128%.

In the case of `Cc1ccc(C#N)c(SCC(=O)O)n1`, the survival was inactive: 113%.

As for `CCOc1ccc(CCNC(=O)CCc2c(C)nc3c(c(C)nn3-c3ccc(C)c(C)c3)c2C)cc1`, the survival is inactive: 77%.

For `CCCCNS(=O)(=O)c1ccc2nc(-c3cccnc3)cc(C(=O)NCCCOC(C)C)c2c1`, the survival is inactive: 63%.

Regarding `Cc1ccc2nc(NCc3ccccc3)c3nnnn3c2c1`, the survival was inactive: 159%.

On to `Cc1cccc2c1-c1sc(C(=O)N3CCN(c4ccccc4)CC3)cc1CO2`, for which the survival is inactive: 65%.

Regarding `COc1ccc(-c2noc(N3CCC(C(=O)N4CCN(c5ccccc5OC)CC4)CC3)n2)cc1`, the survival was inactive: 55%.

For the molecule `CCOC(=O)c1cnc2c(C)c(Cl)ccc2c1NCCc1ccc(OC)c(OC)c1`, the survival was active: 4%.

For `CCOc1cccc(Nc2nn(-c3ccc(OC(F)(F)F)cc3)nc2C(C)=O)c1`, the survival is inactive: 94%.

Turning to `CCOC(=O)c1ccc(NC(=O)C2CC(=O)NC(=Nc3ccc(C)c(C)c3)S2)cc1` (centres undefined), the survival was inactive: 46%.

As to `COc1ccccc1CNC(=O)Cn1c(=O)oc2cc(S(=O)(=O)N3CCCC3)ccc21`, the survival was inactive: 122%.

As for `Cc1ccc(N(CC(=O)NCCc2ccccc2C)S(=O)(=O)N(C)C)cc1`, the survival was inactive: 88%.

Source of the values: PubChem BioAssay AID463173 (ICCB-Longwood Screening Facility, Harvard Medical School, 2010).
